Targets include SHP2 C-SH2 domain E139D; SHP2 N-SH2 domain L43F; SHP2 N-SH2 domain T42A; SHP2 N-SH2 domain T52S.
Holding throughout (assay): enrichment score (SH2-bound / input frequency) (ratio); bacterial display of known human phosphotyrosine sites (pTyr-Var adds point mutants) read by sequencing; higher = stronger binding; tyrosines were phosphorylated by kinases first
Common to all, as to details: peptide library: Human pTyr

The target of assay [1] is SHP2 C-SH2 domain wild-type.
Assay [2] concerns the target SHP2 N-SH2 domain wild-type.

Some of the results follow. Rule as the data show it: active = 3.2 or more and inactive = the rest. Only a few entries rise above the background.
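Also: displayed peptides selected on beads carrying the immobilized SH2 domain, with library peptides lacking any tyrosine serving as negative controls.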

B1: CDK2_HUMAN_15 (peptide)
chain: EKIGEGTYGVVYKAR
In the case of B1, the enrichment score in the assay with SHP2 C-SH2 domain E139D was inactive: 0.929; in assay [1], inactive: 0.723; in the assay with SHP2 N-SH2 domain L43F it was inactive: 0.701; with SHP2 N-SH2 domain T42A, inactive: 0.72; with SHP2 N-SH2 domain T52S, inactive: 0.708; in assay [2], inactive: 0.773.

B2: CDK1_HUMAN_15 (peptide)
chain: EKIGEGTYGVVYKGR
With B2, the enrichment score was inactive: 0.892 with SHP2 C-SH2 domain E139D; inactive: 0.826 in assay [1]; inactive: 0.754 with SHP2 N-SH2 domain L43F; inactive: 0.717 with SHP2 N-SH2 domain T42A; inactive: 0.698 with SHP2 N-SH2 domain T52S; inactive: 0.757 in assay [2].

B3: CDK1_HUMAN_19_YA (peptide)
chain: EGTAGVVYKGRHKTT
B3: the enrichment score was inactive: 0.633 in the assay with SHP2 C-SH2 domain E139D; inactive: 0.711 in assay [1]; inactive: 0.686 with SHP2 N-SH2 domain L43F; inactive: 0.638 with SHP2 N-SH2 domain T42A; inactive: 0.813 with SHP2 N-SH2 domain T52S; inactive: 0.734 in assay [2].

B4: ABL2_HUMAN_174 (peptide)
chain: SLEKHSWYHGPVSRS
Take B4: the enrichment score in the assay with SHP2 C-SH2 domain E139D was inactive: 0.98; in assay [1], inactive: 1.64; with SHP2 N-SH2 domain L43F, inactive: 1.07; with SHP2 N-SH2 domain T42A, inactive: 0.793; in the assay with SHP2 N-SH2 domain T52S it was inactive: 0.941; in assay [2], inactive: 1.4.

B5: CDK4_HUMAN_17_YA (peptide)
chain: AEIGVGAYGTVAKAR
As to B5, the enrichment score with SHP2 C-SH2 domain E139D is inactive: 0.731; in assay [1] it was inactive: 0.755; in the assay with SHP2 N-SH2 domain L43F, inactive: 0.94; in the assay with SHP2 N-SH2 domain T42A it was inactive: 0.817; with SHP2 N-SH2 domain T52S it was inactive: 0.741; in assay [2], inactive: 0.771.

B6: ABL2_HUMAN_231 (peptide)
chain: TTADGKVYVTAESRF
With B6, the enrichment score with SHP2 C-SH2 domain E139D was inactive: 0.896; in assay [1] it was inactive: 0.664; with SHP2 N-SH2 domain L43F it was inactive: 0.832; in the assay with SHP2 N-SH2 domain T42A it was inactive: 0.686; with SHP2 N-SH2 domain T52S, inactive: 0.674; in assay [2], inactive: 0.913.

B7: CDN1B_HUMAN_89 (peptide)
chain: GSLPEFYYRPPRPPK
As to B7, the enrichment score with SHP2 C-SH2 domain E139D was inactive: 0.496; in assay [1] it was inactive: 0.735; in the assay with SHP2 N-SH2 domain L43F, inactive: 0.34; in the assay with SHP2 N-SH2 domain T42A, inactive: 0.639; in the assay with SHP2 N-SH2 domain T52S, inactive: 0.452; in assay [2] it was inactive: 0.725.

B8: CDK12_HUMAN_73 (peptide)
chain: VIKPLVEYDDISSDS
Turning to B8, the enrichment score with SHP2 C-SH2 domain E139D is inactive: 1.1; in assay [1], inactive: 1.08; in the assay with SHP2 N-SH2 domain L43F it was inactive: 0.793; with SHP2 N-SH2 domain T42A it was inactive: 0.933; with SHP2 N-SH2 domain T52S it was inactive: 0.763; in assay [2] it was inactive: 0.899.

B9: CDCP1_HUMAN_743 (peptide)
chain: VIEDTMVYGHLLQDS
Turning to B9, the enrichment score was inactive: 0.641 with SHP2 C-SH2 domain E139D; inactive: 0.542 in assay [1]; inactive: 0.609 in the assay with SHP2 N-SH2 domain L43F; inactive: 0.577 with SHP2 N-SH2 domain T42A; inactive: 0.638 in the assay with SHP2 N-SH2 domain T52S; inactive: 0.626 in assay [2].

B10: CDH5_HUMAN_658 (peptide)
chain: GEMDTTSYDVSVLNS
Regarding B10, the enrichment score in the assay with SHP2 C-SH2 domain E139D was inactive: 0.648; in assay [1] it was inactive: 0.513; with SHP2 N-SH2 domain L43F, inactive: 0.74; with SHP2 N-SH2 domain T42A, inactive: 0.502; in the assay with SHP2 N-SH2 domain T52S it was inactive: 0.653; in assay [2], inactive: 0.635.

B11: CDV3_HUMAN_244 (peptide)
chain: KLQLDNQYAVLENQK
With B11, the enrichment score with SHP2 C-SH2 domain E139D is inactive: 1.54; in assay [1], active: 3.63; in the assay with SHP2 N-SH2 domain L43F it was inactive: 0.955; in the assay with SHP2 N-SH2 domain T42A, inactive: 1.81; with SHP2 N-SH2 domain T52S, inactive: 0.972; in assay [2] it was inactive: 0.887.

B12: CDK2_HUMAN_15_YA (peptide)
chain: EKIGEGTYGVVAKAR
Take B12: the enrichment score in the assay with SHP2 C-SH2 domain E139D is inactive: 0.687; in assay [1], inactive: 0.606; in the assay with SHP2 N-SH2 domain L43F it was inactive: 0.651; with SHP2 N-SH2 domain T42A it was inactive: 0.817; with SHP2 N-SH2 domain T52S it was inactive: 0.747; in assay [2], inactive: 0.757.

B13: CDN1B_HUMAN_88_YA (peptide)
chain: KGSLPEFYARPPRPP
In the case of B13, the enrichment score in the assay with SHP2 C-SH2 domain E139D was inactive: 0.512; in assay [1], inactive: 0.652; with SHP2 N-SH2 domain L43F, inactive: 0.542; with SHP2 N-SH2 domain T42A, inactive: 0.422; with SHP2 N-SH2 domain T52S, inactive: 0.806; in assay [2], inactive: 0.835.

B14: CDN1B_HUMAN_88 (peptide)
chain: KGSLPEFYYRPPRPP
On to B14, for which the enrichment score with SHP2 C-SH2 domain E139D was inactive: 0.478; in assay [1] it was inactive: 0.578; with SHP2 N-SH2 domain L43F, inactive: 0.852; in the assay with SHP2 N-SH2 domain T42A, inactive: 0.666; with SHP2 N-SH2 domain T52S it was inactive: 0.546; in assay [2] it was inactive: 0.611.

B15: CDK2_HUMAN_19_YA (peptide)
chain: EGTAGVVYKARNKLT
As to B15, the enrichment score with SHP2 C-SH2 domain E139D is inactive: 0.662; in assay [1], inactive: 0.697; with SHP2 N-SH2 domain L43F it was inactive: 0.593; with SHP2 N-SH2 domain T42A it was inactive: 0.623; in the assay with SHP2 N-SH2 domain T52S, inactive: 0.643; in assay [2] it was inactive: 0.539.

B16: CDKL5_HUMAN_171_YA (peptide)
chain: NNANATEYVATRWAR
As for B16, the enrichment score with SHP2 C-SH2 domain E139D is inactive: 0.946; in assay [1] it was inactive: 1.07; in the assay with SHP2 N-SH2 domain L43F, inactive: 0.862; with SHP2 N-SH2 domain T42A, inactive: 0.917; in the assay with SHP2 N-SH2 domain T52S, inactive: 1.02; in assay [2], inactive: 0.98.

B17: CE170_HUMAN_364 (peptide)
chain: IKSDVPVYLKRLKGN
Take B17: the enrichment score in the assay with SHP2 C-SH2 domain E139D was inactive: 0.902; in assay [1], inactive: 0.797; with SHP2 N-SH2 domain L43F it was inactive: 0.661; in the assay with SHP2 N-SH2 domain T42A, inactive: 0.705; with SHP2 N-SH2 domain T52S, inactive: 0.881; in assay [2], inactive: 0.774.

B18: CDK4_HUMAN_17 (peptide)
chain: AEIGVGAYGTVYKAR
Regarding B18, the enrichment score in the assay with SHP2 C-SH2 domain E139D was inactive: 1.09; in assay [1], inactive: 1.2; in the assay with SHP2 N-SH2 domain L43F, inactive: 1.12; with SHP2 N-SH2 domain T42A, inactive: 0.837; in the assay with SHP2 N-SH2 domain T52S it was inactive: 1.1; in assay [2], inactive: 0.813.
